Data as given in PubChem BioAssay AID894 (National Center for Advancing Translational Sciences (NCATS), 2007).
Screen size: about 150,000 compounds; about 6,500 (4.3%) were called active. The shares of active, inactive and inconclusive entries below differ from those in the screen. Calls follow the shape of the dose curve; as a rule, active = well fitted inhibition curve with a large enough effect (not every such curve was filed as active); inconclusive = small, poorly fitted or top-dose-only effect, or another doubt; inactive = no such curve, though single readings can be large or run the other way. No potency is given beside an inconclusive call; the fits are too rough.
% is scaled to controls: 0 for no effect and ±100 for the full control effect; potency is read from the fitted curve at half-maximal effect; tags tell the direction and shape of the fitted curve.

These molecules were tested against 15-hydroxyprostaglandin dehydrogenase [NAD(+)] (Homo sapiens) (UniProt P15428) (assay: qHTS Assay for Inhibitors of HPGD (15-Hydroxyprostaglandin Dehydrogenase)). Conditions: purified HPGD, NADH fluorescence kinetic, PGE2 substrate; activity change, negative = inhibition: stronger effect = lower value.
Sequence of UniProt P15428 (P15428 whole entry, looked up): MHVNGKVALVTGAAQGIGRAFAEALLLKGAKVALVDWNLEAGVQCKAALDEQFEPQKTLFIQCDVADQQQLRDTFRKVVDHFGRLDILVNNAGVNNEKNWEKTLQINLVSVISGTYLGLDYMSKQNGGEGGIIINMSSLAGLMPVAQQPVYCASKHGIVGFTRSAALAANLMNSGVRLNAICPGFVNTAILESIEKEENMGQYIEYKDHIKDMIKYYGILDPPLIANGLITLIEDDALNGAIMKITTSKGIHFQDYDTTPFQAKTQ
In short: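 NADH formation kinetics: reaction with 30 uM PGE2 and 1 mM NAD+ (final), 20 nM enzyme, Tris-HCl pH 8 with Tween 20, after 15 min compound preincubation at room temperature. Fluorescence change, last versus first of five reads.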
In the case of `Cc1ccnc(NC(=O)c2c(O)c3ccccc3n(C)c2=O)c1`, the activity change, negative = inhibition is reported as inactive: -13%. In the case of `COC(=O)Cn1c(=NC(=O)c2sc3ccccc3c2Cl)sc2cc(S(N)(=O)=O)ccc21`, the Potency is reported as inconclusive [inhibitor, partial curve]. For `Cc1cc(C)n2nc(SCCC(=O)NCCc3ccccc3)nc2n1`, the activity change, negative = inhibition was inactive: -13.6%. `CCn1c(C)cc(/C=C2/SC(=S)NC2=O)c1C` was tested, and the Potency was inconclusive [inhibitor, single point]. `Cc1ccc(-c2ccc(CCC(=O)O)n2CC(=O)O)cc1` was tested, and the Potency was inconclusive [inhibitor, partial curve]. With `CN(C)c1ccc(/C=N/n2c(COc3ccccc3)n[nH]c2=S)cc1` the Potency was active: 12.6 µM. `N#Cc1c(Cl)nc(N/N=C/c2ccccc2)c(Cl)c1Cl` was tested, and the Potency was inconclusive [inhibitor, partial curve]. With `Cc1cc(-c2ccccc2)nc(N(C)NC(=O)c2c(F)cccc2F)c1S(C)(=O)=O` the Potency was inconclusive [inhibitor, partial curve]. `Cc1ccc(-c2csc3n[nH]c(=S)n23)cc1` was tested, and the Potency was active: 28.2 µM. For `O=C1c2ccccc2S(=O)(=O)N1CCOc1ccc(F)cc1`, the Potency was inconclusive [inhibitor, single point]. For `COCCCNC(=S)NC(=O)c1ccc([N+](=O)[O-])cc1`, the activity change, negative = inhibition was inactive: -5.32%. With `COCCn1c(=O)c(CCc2ccccc2)nc2cnc(N3CCNCC3)nc21` the Potency was inconclusive [inhibitor, partial curve]. With `COc1ccc(/C=C/c2nc3cc(-c4ccccc4)ccc3o2)cc1O` the Potency was inconclusive [inhibitor, partial curve]. For `COc1ccc(NC(=O)CSc2nnc(C3CC3)n2N)cc1`, the activity change, negative = inhibition was inactive: -11%. `CSc1ccc(S(=O)(=O)Nc2ccc3c4c(cccc24)CC3)cc1` was tested, and the activity change, negative = inhibition was inactive: -13.3%. With `CCOc1ccc2nc3sc(C(=O)N4CCN(C)CC4)c(N)c3cc2c1` the Potency was active: 14.1 µM. For `CC(=O)Oc1ccc2occ(C(=O)c3cccs3)c2c1`, the activity change, negative = inhibition was inactive: -9.35%. For `CCOC(=O)C1CCCN(C(=O)c2cn(CC(C)C)c(=O)c3cc(OC)c(OC)cc23)C1` (stereo unspecified), the activity change, negative = inhibition was inactive: -26.8%. With `Cc1cc(N2CCN(S(=O)(=O)c3ccc4c(c3)OCCO4)CC2)n2ncnc2n1` the Potency was inconclusive [inhibitor, partial curve]. For `Cc1cccc(OCC(=O)Nc2cccc3nsnc23)c1`, the Potency was inconclusive [inhibitor, single point]. With `Cc1[nH]c2ccccc2c1Cc1n[nH]c(=S)o1` the Potency was inconclusive [inhibitor, partial curve].
